From the supplement of paper PMC10126150
Values marked as one replicate rest on one cluster of the flow cell; about a third of the high ones do not repeat.

Test system: ATP
Assay: switch fluorescence ratio, 500 uM ATP over buffer (Cy3 cluster intensity, sum of 5 cycles each) (fold (ratio)); higher = stronger signal-on switching upon ATP binding; sequences stand for … in TCGTCGGCAGCGTCAGATGTGTATAAGAGACAGTTTTTTTTTTTTTTTTTTTTTTTTT…TC
Conditions: aptamer strand: ATP DNA aptamer (quencher-CACCTGGGGGAGTATTGCGGAGGAAGG + anchor), 100 nM annealed; ATP concentration: 500 uM; one replicate
In short: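 Cy3-labelled switching-strand clusters on a modified Illumina MiSeq flow-cell were annealed to 100 nM quencher-labelled ATP aptamer and imaged first in selection buffer, then after 15 min with 500 uM ATP at 22 °C. NaOH stripping and re-annealing separated each of five buffer/ATP cycles, and clusters outside 100-1000 RFU were excluded. The fluorescence ratio sums target-cycle Cy3 intensity over buffer-cycle Cy3 intensity per cluster and averages it per switch-domain sequence.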
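Further: ATP exposure 15 min at 22 °C before imaging.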

ATTAGTCCT
switch fluorescence ratio: 1.03

CTATGAGCCG
switch fluorescence ratio: 0.86

GGGCCAAGTT
switch fluorescence ratio: 0.948

GGGCCCCC
switch fluorescence ratio: 1.04

ACGTTAGTTC
switch fluorescence ratio: 1.01

CACACTGTGT
switch fluorescence ratio: 1.05

GATTAAACGC
switch fluorescence ratio: 1.02

GTAAGTGTTA
switch fluorescence ratio: 0.977

CTGTTTTTCA
switch fluorescence ratio: 0.988

TTATAATAT
switch fluorescence ratio: 1

CGGCTTCTAC
switch fluorescence ratio: 1.07

TCTTAAGCCA
switch fluorescence ratio: 1.05

GATCGGATA
switch fluorescence ratio: 0.998

AAAACCCTTC
switch fluorescence ratio: 1.19

GGCGAAACAT
switch fluorescence ratio: 1

GTAGGTGATA
switch fluorescence ratio: 1.03

TTCGTCTAAT
switch fluorescence ratio: 0.998

ATTATTTAGA
switch fluorescence ratio: 0.998

TCCGGGGATT
switch fluorescence ratio: 1.04

AAAAAGTTTA
switch fluorescence ratio: 1

GATACCGATG
switch fluorescence ratio: 1.01

TAGACGCGA
switch fluorescence ratio: 1.44

GATGAAACAA
switch fluorescence ratio: 1.01

TAAGCGGGTG
switch fluorescence ratio: 0.99

TCGCGGTTTT
switch fluorescence ratio: 1.06

GTCGGTGGTC
switch fluorescence ratio: 0.998

TGGTTTCATA
switch fluorescence ratio: 0.988

CTGGTAGCCC
switch fluorescence ratio: 1.01

TACGTGGCGT
switch fluorescence ratio: 1.02

GGCTAGGCAT
switch fluorescence ratio: 0.986

CCCAAAATA
switch fluorescence ratio: 1.04

CTACATGCTA
switch fluorescence ratio: 1.02

CTTTTATGAC
switch fluorescence ratio: 1.02

TGGGTCTTCC
switch fluorescence ratio: 1.16

GAGGCCGGGT
switch fluorescence ratio: 1.07

AGGGCTTCTG
switch fluorescence ratio: 0.97

TAGAACGATG
switch fluorescence ratio: 0.981

CTGGGAGTTT
switch fluorescence ratio: 0.916

GTTTTTAGCT
switch fluorescence ratio: 1.06

AGCCTCGATA
switch fluorescence ratio: 0.987

ACCTCAGTAG
switch fluorescence ratio: 1.13

TGGCAGTTGC
switch fluorescence ratio: 0.965

TTCTCGTCGA
switch fluorescence ratio: 1.01

ATTAAAGCGG
switch fluorescence ratio: 1.03

AGTAGCTTCT
switch fluorescence ratio: 1.02

CGTCTGTGGA
switch fluorescence ratio: 1.01

CGCGGCACTA
switch fluorescence ratio: 1.55

TTTATTCTGA
switch fluorescence ratio: 0.967

CCCGAAGATT
switch fluorescence ratio: 0.998

AGTCGTGATA
switch fluorescence ratio: 1.03

CGTACCTTTG
switch fluorescence ratio: 1.01

TGCGGACGTC
switch fluorescence ratio: 0.925

TGCATACATC
switch fluorescence ratio: 1.07

CGTTATCTG
switch fluorescence ratio: 0.947

ATCGGCTGTA
switch fluorescence ratio: 1.01

CACACTTATC
switch fluorescence ratio: 1.11

GTGACAAGAA
switch fluorescence ratio: 1.01

CTTTCCTGAT
switch fluorescence ratio: 0.985

AGGATGCTAG
switch fluorescence ratio: 0.997

TTCCCTCT
switch fluorescence ratio: 1.05

GAGTTTGTGA
switch fluorescence ratio: 1.02

TATGAGGGAC
switch fluorescence ratio: 0.963

TTCCCCGAA
switch fluorescence ratio: 1.12

TGGTGCTTTA
switch fluorescence ratio: 1.22

TGCCTCATGG
switch fluorescence ratio: 0.991

CAGATAGAGG
switch fluorescence ratio: 0.961

GCATCAATGA
switch fluorescence ratio: 0.997

GGACCGCGGC
switch fluorescence ratio: 1.09

GCGGTTTACC
switch fluorescence ratio: 0.98

AGGCAAGTCG
switch fluorescence ratio: 0.998

AATTGAAGGA
switch fluorescence ratio: 1.02

TTCGCCAGCA
switch fluorescence ratio: 1.11

TATCCAAGGT
switch fluorescence ratio: 1.04

GTTTATCTAC
switch fluorescence ratio: 1.02

TTAGCTGCGC
switch fluorescence ratio: 0.928

ACCTGATAGC
switch fluorescence ratio: 1.03

TATCAGTAAA
switch fluorescence ratio: 0.998

ATTCGCTACT
switch fluorescence ratio: 1.58

ACTTTCAG
switch fluorescence ratio: 1.04

AGAGTTGGGG
switch fluorescence ratio: 0.985

GAGTCATGTA
switch fluorescence ratio: 0.999

TACCTTACTG
switch fluorescence ratio: 1.39

CCCTGAATGT
switch fluorescence ratio: 1.05

CGTTAGACCT
switch fluorescence ratio: 1.1

AGGTGTATGA
switch fluorescence ratio: 0.975

TATCCGTTT
switch fluorescence ratio: 1.04

TCGGTTGAGC
switch fluorescence ratio: 1.02

GAATTGGCCG
switch fluorescence ratio: 0.97

TCCCGGGAGG
switch fluorescence ratio: 1.01

ATGTCAAATT
switch fluorescence ratio: 0.964

CTGTGCGCAT
switch fluorescence ratio: 1.9

GAGGGCTTAT
switch fluorescence ratio: 0.888

CGTTTGAGC
switch fluorescence ratio: 0.945

GGAGCTAACG
switch fluorescence ratio: 1.64

GAATCCTAG
switch fluorescence ratio: 0.961

AAATCATCAG
switch fluorescence ratio: 0.999

CAGGGACTGT
switch fluorescence ratio: 1.03

CAGATAACTT
switch fluorescence ratio: 0.992

AATGAGTTAT
switch fluorescence ratio: 0.989

CGAGTCGTAT
switch fluorescence ratio: 0.983

TCTATGGAGT
switch fluorescence ratio: 0.992

ATCGCCGGAG
switch fluorescence ratio: 1.01

GGGAATCGCA
switch fluorescence ratio: 1.02

GGCAAGTTGG
switch fluorescence ratio: 1.16

ATTTTCAGG
switch fluorescence ratio: 0.989

TGGACCGGCA
switch fluorescence ratio: 1.02

TCTCCACTGC
switch fluorescence ratio: 2.39

GTTAAATATC
switch fluorescence ratio: 0.996

AGAGGATGCC
switch fluorescence ratio: 1.11

CAGCAAGGA
switch fluorescence ratio: 3.4

TTAAAGTTGG
switch fluorescence ratio: 0.969

GTTATAAGCC
switch fluorescence ratio: 0.991

ACGACGTCA
switch fluorescence ratio: 1.24

AGGGGTTACA
switch fluorescence ratio: 1.03

ACTGGAATGG
switch fluorescence ratio: 0.969

ACAAAGGCAT
switch fluorescence ratio: 1

CCAGGCAGAA
switch fluorescence ratio: 1.07

ACCTAGTGAG
switch fluorescence ratio: 1.04

TACGCTCTGA
switch fluorescence ratio: 1.01

TTGAAGTGAT
switch fluorescence ratio: 1.59

CAATGGGAGG
switch fluorescence ratio: 0.954

AGTAGTGTGA
switch fluorescence ratio: 1.07

TAGAATCTTG
switch fluorescence ratio: 1.06

GGATTGCACG
switch fluorescence ratio: 0.996

GTAGACTTGA
switch fluorescence ratio: 1.02

GATGGTCTTA
switch fluorescence ratio: 0.97

TAAACGAAG
switch fluorescence ratio: 1.01

TCACATTGCG
switch fluorescence ratio: 1.03

ATGGCTCACC
switch fluorescence ratio: 0.971

TAGAGCCTGG
switch fluorescence ratio: 0.978

GTGCGAGGAG
switch fluorescence ratio: 1.03

CGCATAATTA
switch fluorescence ratio: 1.11

CATTCTGTAC
switch fluorescence ratio: 1.08

GATTTACTCA
switch fluorescence ratio: 1.02

CGCTAAATGC
switch fluorescence ratio: 4.52

AAGAGGTACG
switch fluorescence ratio: 1.02

ATCCTGGTTG
switch fluorescence ratio: 0.979

TCATCCCTTG
switch fluorescence ratio: 1.03

TTATAGGGA
switch fluorescence ratio: 1

TAAGTAGACC
switch fluorescence ratio: 0.973

TGGTTTCCGC
switch fluorescence ratio: 1.07

TTACAGCGCA
switch fluorescence ratio: 1.03

AGGGGGATTC
switch fluorescence ratio: 0.974

GCAGTATTGT
switch fluorescence ratio: 1.01

TAGCAGGCGG
switch fluorescence ratio: 0.995

TAACTCGAAT
switch fluorescence ratio: 1.01

CAATTCGTGG
switch fluorescence ratio: 0.975

ATTTGGCG
switch fluorescence ratio: 1.03

GCTGTAGTTC
switch fluorescence ratio: 1.14

AGTGGCGCTC
switch fluorescence ratio: 1.02

GGTCCCATGG
switch fluorescence ratio: 1.04

TAAACAGCTC
switch fluorescence ratio: 0.961

ACCACGTAGT
switch fluorescence ratio: 0.996

TCTAGGTGC
switch fluorescence ratio: 3.33

GGGATGCCGA
switch fluorescence ratio: 0.972

AGCGGCAGAC
switch fluorescence ratio: 1.28

CTAGTATACA
switch fluorescence ratio: 0.997

TGATAGGTCG
switch fluorescence ratio: 1.07
